Source: US9340590B2 (priority 2011, dated 2016)
Where two headings read alike, the source gives them in different places. At least one compound was matched to its structure with a doubt left.

Experiments:
Type in all cases: cell-based
[1] = biological target: T1, hNav1.7 (Homo sapiens, UniProt Q15858); details: IonWorks Quattro, use-dependent block; read-out: IWQ Use Nav1.7
[2] = biological target: T1, hNav1.7; details: read-out: Nav1.7 Use IC50
[3] = biological target: hNav1.5 (Homo sapiens, UniProt Q14524); details: IonWorks Quattro, use-dependent block; read-out: IWQ Use Nav1.5
[4] = biological target: hNav1.3 (Homo sapiens, UniProt Q9NY46); details: IonWorks Quattro, use-dependent block; read-out: IWQ Use Nav1.3
Chain of hNav1.3 (Q9NY46 whole entry, looked up): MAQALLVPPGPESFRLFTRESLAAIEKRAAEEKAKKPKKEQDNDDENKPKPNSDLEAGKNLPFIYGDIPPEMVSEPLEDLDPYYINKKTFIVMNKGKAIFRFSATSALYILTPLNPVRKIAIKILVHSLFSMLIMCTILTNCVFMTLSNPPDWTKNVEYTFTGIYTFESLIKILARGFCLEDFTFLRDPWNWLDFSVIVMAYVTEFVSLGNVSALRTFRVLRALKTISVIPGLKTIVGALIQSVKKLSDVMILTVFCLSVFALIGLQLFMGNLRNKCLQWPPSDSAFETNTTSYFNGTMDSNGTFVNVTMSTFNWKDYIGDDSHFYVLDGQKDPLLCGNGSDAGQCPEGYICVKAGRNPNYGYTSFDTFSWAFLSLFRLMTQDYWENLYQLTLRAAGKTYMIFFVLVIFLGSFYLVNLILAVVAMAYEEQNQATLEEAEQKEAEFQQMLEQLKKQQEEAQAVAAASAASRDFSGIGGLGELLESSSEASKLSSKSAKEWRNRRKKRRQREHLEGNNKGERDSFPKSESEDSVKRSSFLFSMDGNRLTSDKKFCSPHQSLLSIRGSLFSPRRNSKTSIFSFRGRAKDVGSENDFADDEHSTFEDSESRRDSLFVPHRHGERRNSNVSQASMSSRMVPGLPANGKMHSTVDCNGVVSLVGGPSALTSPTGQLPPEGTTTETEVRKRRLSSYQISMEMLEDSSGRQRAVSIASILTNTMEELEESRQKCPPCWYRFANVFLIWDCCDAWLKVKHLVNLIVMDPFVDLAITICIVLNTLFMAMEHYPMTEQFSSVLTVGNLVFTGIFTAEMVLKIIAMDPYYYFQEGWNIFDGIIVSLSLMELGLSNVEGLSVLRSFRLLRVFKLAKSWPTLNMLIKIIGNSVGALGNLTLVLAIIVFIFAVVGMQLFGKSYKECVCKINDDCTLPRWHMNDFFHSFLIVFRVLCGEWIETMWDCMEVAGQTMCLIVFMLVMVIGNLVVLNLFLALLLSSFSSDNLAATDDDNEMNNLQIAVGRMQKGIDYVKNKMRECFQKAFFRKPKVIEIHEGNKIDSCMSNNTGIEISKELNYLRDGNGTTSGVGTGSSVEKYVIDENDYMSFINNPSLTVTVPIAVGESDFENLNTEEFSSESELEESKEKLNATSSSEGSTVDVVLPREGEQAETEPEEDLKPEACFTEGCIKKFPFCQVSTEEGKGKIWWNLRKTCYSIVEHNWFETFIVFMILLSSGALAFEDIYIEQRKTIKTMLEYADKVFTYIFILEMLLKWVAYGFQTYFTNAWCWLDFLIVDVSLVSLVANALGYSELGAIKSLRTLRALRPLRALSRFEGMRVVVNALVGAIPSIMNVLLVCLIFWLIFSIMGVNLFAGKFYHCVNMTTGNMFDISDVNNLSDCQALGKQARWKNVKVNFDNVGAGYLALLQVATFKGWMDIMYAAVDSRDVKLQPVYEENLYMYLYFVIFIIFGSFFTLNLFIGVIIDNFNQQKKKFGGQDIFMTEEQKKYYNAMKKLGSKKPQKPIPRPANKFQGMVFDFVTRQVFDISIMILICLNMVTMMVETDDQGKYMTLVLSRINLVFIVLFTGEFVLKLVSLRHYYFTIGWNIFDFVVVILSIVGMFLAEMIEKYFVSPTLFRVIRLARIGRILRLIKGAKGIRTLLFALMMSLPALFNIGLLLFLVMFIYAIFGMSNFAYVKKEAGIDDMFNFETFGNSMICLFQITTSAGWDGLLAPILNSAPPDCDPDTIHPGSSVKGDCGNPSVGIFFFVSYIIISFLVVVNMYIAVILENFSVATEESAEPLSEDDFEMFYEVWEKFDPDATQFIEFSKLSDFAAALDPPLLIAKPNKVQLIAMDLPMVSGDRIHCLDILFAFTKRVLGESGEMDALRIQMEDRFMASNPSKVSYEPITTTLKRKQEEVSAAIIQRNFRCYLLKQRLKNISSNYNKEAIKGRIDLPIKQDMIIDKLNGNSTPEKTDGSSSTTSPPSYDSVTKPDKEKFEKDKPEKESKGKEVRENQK

T1 sequence (Q15858 whole entry, looked up): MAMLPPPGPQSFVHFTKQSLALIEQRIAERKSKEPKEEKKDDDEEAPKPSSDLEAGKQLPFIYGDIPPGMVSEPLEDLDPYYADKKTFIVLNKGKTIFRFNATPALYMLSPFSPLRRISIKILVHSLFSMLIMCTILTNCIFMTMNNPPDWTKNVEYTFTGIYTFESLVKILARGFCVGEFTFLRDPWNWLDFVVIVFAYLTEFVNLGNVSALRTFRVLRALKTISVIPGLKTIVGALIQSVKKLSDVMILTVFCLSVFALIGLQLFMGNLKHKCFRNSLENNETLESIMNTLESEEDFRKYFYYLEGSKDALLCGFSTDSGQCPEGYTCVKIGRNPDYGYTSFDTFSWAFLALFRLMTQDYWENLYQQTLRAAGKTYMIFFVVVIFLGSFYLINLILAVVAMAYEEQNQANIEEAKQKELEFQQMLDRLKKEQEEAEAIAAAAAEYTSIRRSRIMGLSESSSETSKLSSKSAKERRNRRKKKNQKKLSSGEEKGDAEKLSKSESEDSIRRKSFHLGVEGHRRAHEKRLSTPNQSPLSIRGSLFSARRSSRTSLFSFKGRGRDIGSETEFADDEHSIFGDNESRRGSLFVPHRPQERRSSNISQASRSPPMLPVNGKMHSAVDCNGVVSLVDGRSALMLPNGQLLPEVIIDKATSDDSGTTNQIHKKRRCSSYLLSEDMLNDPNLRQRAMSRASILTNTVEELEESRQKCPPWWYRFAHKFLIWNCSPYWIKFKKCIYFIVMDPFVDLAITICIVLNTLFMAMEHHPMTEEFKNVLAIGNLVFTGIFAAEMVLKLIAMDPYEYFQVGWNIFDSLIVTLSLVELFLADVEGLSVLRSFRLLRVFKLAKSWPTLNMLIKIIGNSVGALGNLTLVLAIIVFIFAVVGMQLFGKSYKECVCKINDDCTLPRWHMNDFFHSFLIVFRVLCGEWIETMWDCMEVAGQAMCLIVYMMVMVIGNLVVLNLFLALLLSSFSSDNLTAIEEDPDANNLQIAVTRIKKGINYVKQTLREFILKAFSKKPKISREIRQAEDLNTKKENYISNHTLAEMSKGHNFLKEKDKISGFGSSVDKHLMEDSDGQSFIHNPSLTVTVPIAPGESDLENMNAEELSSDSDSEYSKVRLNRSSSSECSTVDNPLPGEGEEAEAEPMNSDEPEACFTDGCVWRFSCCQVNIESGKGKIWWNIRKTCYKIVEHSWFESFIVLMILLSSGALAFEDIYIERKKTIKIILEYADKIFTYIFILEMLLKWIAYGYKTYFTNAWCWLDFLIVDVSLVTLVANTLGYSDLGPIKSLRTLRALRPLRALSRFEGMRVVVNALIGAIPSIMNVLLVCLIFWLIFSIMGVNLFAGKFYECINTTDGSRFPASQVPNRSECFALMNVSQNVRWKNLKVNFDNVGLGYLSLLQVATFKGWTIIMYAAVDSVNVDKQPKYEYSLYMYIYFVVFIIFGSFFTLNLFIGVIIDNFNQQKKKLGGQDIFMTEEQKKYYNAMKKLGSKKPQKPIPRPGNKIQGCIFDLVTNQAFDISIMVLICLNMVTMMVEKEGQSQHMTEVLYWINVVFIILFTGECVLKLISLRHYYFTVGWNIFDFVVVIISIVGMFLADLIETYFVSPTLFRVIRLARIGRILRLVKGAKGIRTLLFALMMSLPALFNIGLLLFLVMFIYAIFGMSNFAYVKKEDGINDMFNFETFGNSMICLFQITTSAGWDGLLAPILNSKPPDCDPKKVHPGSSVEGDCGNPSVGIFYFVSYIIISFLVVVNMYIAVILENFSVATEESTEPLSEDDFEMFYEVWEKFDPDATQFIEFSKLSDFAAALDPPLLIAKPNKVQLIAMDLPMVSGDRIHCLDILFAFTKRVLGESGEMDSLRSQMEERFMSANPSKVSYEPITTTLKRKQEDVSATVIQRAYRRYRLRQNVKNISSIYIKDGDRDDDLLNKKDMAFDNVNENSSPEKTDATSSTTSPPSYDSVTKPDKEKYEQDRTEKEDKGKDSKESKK

Structure (SMILES)	IC50 [1] [nM]	IC50 [2] [nM]	IC50 [3] [nM]	IC50 [4] [nM]
CC[C@H](C)[C@@H]1NC(=O)[C@@H]2CSSC[C@@H]3NC(=O)[C@H](Cc4cn(CCOCCOCCOCCOCCOCCOCCOCCOCCOCCOCCN)nn4)NC(=O)[C@H](CC(C)C)NC(=O)[C@H](CC(N)=O)NC(=O)[C@@H]4CCCN4C(=O)[C@H](CCCNC(=N)N)NC(=O)[C@H](CSSC[C@H](NC(=O)[C@@H](N)CC(=O)O)C(=O)N[C@@H](CC(C)C)C(=O)NCC(=O)N[C@@H](Cc4ccccc4)C(=O)N[C@@H](Cc4ccccc4)C(=O)N[C@@H](CCCNC(=N)N)C(=O)N[C@@H](CCCCN)C(=O)N2)NC(=O)[C@H](CSSC[C@@H](C(=O)N[C@@H](CCCCN)C(=O)N[C@@H](Cc2ccc(O)cc2)C(=O)N[C@H](C(=O)N[C@@H](Cc2ccccc2)C(N)=O)C(C)C)NC(=O)[C@H](Cc2c[nH]c4ccccc24)NC(=O)[C@H](CCCCN)NC(=O)[C@H](Cc2c[nH]cn2)NC(=O)[C@H]([C@@H](C)O)NC(=O)[C@H](CCCNC(=N)N)NC(=O)[C@H](CO)NC3=O)NC(=O)[C@H](CCCCN)NC(=O)[C@H](CC(=O)O)NC(=O)[C@H](CC(N)=O)NC(=O)[C@H](CC(=O)O)NC(=O)[C@@H]2CCCN2C1=O [compound 516]	111	3	7900	59
CC[C@H](C)[C@@H]1NC(=O)[C@@H]2CSSC[C@@H]3NC(=O)[C@H](C(C)C)NC(=O)[C@H](CC(C)C)NC(=O)[C@H](CC(N)=O)NC(=O)[C@@H]4CCCN4C(=O)[C@H](CCCNC(=N)N)NC(=O)[C@H](CSSC[C@H](NC(=O)[C@@H](N)CC(=O)O)C(=O)N[C@@H](CC(C)C)C(=O)NCC(=O)N[C@@H](Cc4ccccc4)C(=O)N[C@@H](Cc4ccccc4)C(=O)N[C@@H](CCCNC(=N)N)C(=O)N[C@@H](CCCCN)C(=O)N2)NC(=O)[C@H](CSSC[C@@H](C(=O)N[C@@H](CCCCN)C(=O)N[C@@H](Cc2ccc(O)cc2)C(=O)N[C@@H](Cc2cn(CCOCCOCCOCCOCCOCCOCCOCCOCCOCCOCCN)nn2)C(=O)N[C@@H](Cc2ccccc2)C(N)=O)NC(=O)[C@H](Cc2c[nH]c4ccccc24)NC(=O)[C@H](CCCCN)NC(=O)[C@H](Cc2c[nH]cn2)NC(=O)[C@H]([C@@H](C)O)NC(=O)[C@H](CCCNC(=N)N)NC(=O)[C@H](CO)NC3=O)NC(=O)[C@H](CCCCN)NC(=O)[C@H](CC(=O)O)NC(=O)[C@H](CC(N)=O)NC(=O)[C@H](CC(=O)O)NC(=O)[C@@H]2CCCN2C1=O [compound 517]	100	27	> 5000	32
CC[C@H](C)[C@@H]1NC(=O)[C@@H]2CSSC[C@@H]3NC(=O)[C@H](Cc4cn(CCOCCOCCOCCOCCOCCOCCOCCOCCOCCOCCN)nn4)NC(=O)[C@H](CC(C)C)NC(=O)[C@H](CC(N)=O)NC(=O)[C@@H]4CCCN4C(=O)[C@H](CCCNC(=N)N)NC(=O)[C@H](CSSC[C@H](NC(=O)[C@@H](N)CC(=O)O)C(=O)N[C@@H](CC(C)C)C(=O)NCC(=O)N[C@@H](C)C(=O)N[C@@H](Cc4ccccc4)C(=O)N[C@@H](CCCNC(=N)N)C(=O)N[C@@H](CCCCN)C(=O)N2)NC(=O)[C@H](CSSC[C@@H](C(=O)N[C@@H](CCCCN)C(=O)N[C@@H](Cc2ccc(O)cc2)C(=O)N[C@H](C(=O)N[C@@H](Cc2ccccc2)C(N)=O)C(C)C)NC(=O)[C@H](Cc2c[nH]c4ccccc24)NC(=O)[C@H](CCCCN)NC(=O)[C@H](Cc2c[nH]cn2)NC(=O)[C@H]([C@@H](C)O)NC(=O)[C@H](CCCNC(=N)N)NC(=O)[C@H](CO)NC3=O)NC(=O)[C@H](CCCCN)NC(=O)[C@H](CC(=O)O)NC(=O)[C@H](CC(N)=O)NC(=O)[C@H](CC(=O)O)NC(=O)[C@@H]2CCCN2C1=O [compound 525]	660	119	> 5000	230
CC[C@H](C)[C@@H]1NC(=O)[C@@H]2CSSC[C@@H]3NC(=O)[C@H](C(C)C)NC(=O)[C@H](CC(C)C)NC(=O)[C@H](CC(N)=O)NC(=O)[C@@H]4CCCN4C(=O)[C@H](CCCNC(=N)N)NC(=O)[C@H](CSSC[C@H](NC(=O)[C@@H](N)CC(=O)O)C(=O)N[C@@H](CC(C)C)C(=O)NCC(=O)N[C@@H](C)C(=O)N[C@@H](Cc4ccccc4)C(=O)N[C@@H](CCCNC(=N)N)C(=O)N[C@@H](CCCCN)C(=O)N2)NC(=O)[C@H](CSSC[C@@H](C(=O)N[C@@H](CCCCN)C(=O)N[C@@H](Cc2ccc(O)cc2)C(=O)N[C@@H](Cc2cn(CCOCCOCCOCCOCCOCCOCCOCCOCCOCCOCCN)nn2)C(=O)N[C@@H](Cc2ccccc2)C(N)=O)NC(=O)[C@H](Cc2c[nH]c4ccccc24)NC(=O)[C@H](CCCCN)NC(=O)[C@H](Cc2c[nH]cn2)NC(=O)[C@H]([C@@H](C)O)NC(=O)[C@H](CCCNC(=N)N)NC(=O)[C@H](CO)NC3=O)NC(=O)[C@H](CCCCN)NC(=O)[C@H](CC(=O)O)NC(=O)[C@H](CC(N)=O)NC(=O)[C@H](CC(=O)O)NC(=O)[C@@H]2CCCN2C1=O [compound 521]	1500	296	> 5000	410
CC[C@H](C)[C@@H]1NC(=O)[C@@H]2CSSC[C@@H]3NC(=O)[C@H](C(C)C)NC(=O)[C@H](CC(C)C)NC(=O)[C@H](CC(N)=O)NC(=O)[C@@H]4CCCN4C(=O)[C@H](CCCNC(=N)N)NC(=O)[C@H](CSSC[C@H](NC(=O)[C@@H](N)CC(=O)O)C(=O)N[C@@H](CC(C)C)C(=O)NCC(=O)N[C@@H](Cc4ccccc4)C(=O)N[C@@H](Cc4ccccc4)C(=O)N[C@@H](CCCNC(=N)N)C(=O)N[C@@H](CCCCN)C(=O)N2)NC(=O)[C@H](CSSC[C@@H](C(=O)N[C@@H](CCCCN)C(=O)N[C@@H](Cc2ccc(O)cc2)C(=O)N[C@H](C(=O)N[C@@H](Cc2ccccc2)C(N)=O)C(C)C)NC(=O)[C@H](Cc2c[nH]c4ccccc24)NC(=O)[C@H](CCCCN)NC(=O)[C@H](Cc2c[nH]cn2)NC(=O)[C@H]([C@@H](C)O)NC(=O)[C@H](CCCNC(=N)N)NC(=O)[C@H](CO)NC3=O)NC(=O)[C@H](Cc2cn(CCOCCOCCOCCOCCOCCOCCOCCOCCOCCOCCN)nn2)NC(=O)[C@H](CC(=O)O)NC(=O)[C@H](CC(N)=O)NC(=O)[C@H](CC(=O)O)NC(=O)[C@@H]2CCCN2C1=O [compound 526]	46	6	> 5000	24
CC[C@H](C)[C@@H]1NC(=O)[C@@H]2CSSC[C@@H]3NC(=O)[C@H](C(C)C)NC(=O)[C@H](CC(C)C)NC(=O)[C@H](CC(N)=O)NC(=O)[C@@H]4CCCN4C(=O)[C@H](CCCNC(=N)N)NC(=O)[C@H](CSSC[C@H](NC(=O)[C@@H](N)CC(=O)O)C(=O)N[C@@H](CC(C)C)C(=O)NCC(=O)N[C@@H](Cc4ccccc4)C(=O)N[C@@H](Cc4ccccc4)C(=O)N[C@@H](CCCNC(=N)N)C(=O)N[C@@H](CCCCN)C(=O)N2)NC(=O)[C@H](CSSC[C@@H](C(=O)N[C@@H](CCCCN)C(=O)N[C@@H](Cc2ccc(O)cc2)C(=O)N[C@H](C(=O)N[C@@H](Cc2cccc4ccccc24)C(N)=O)C(C)C)NC(=O)[C@H](Cc2c[nH]c4ccccc24)NC(=O)[C@H](CCCCN)NC(=O)[C@H](Cc2c[nH]cn2)NC(=O)[C@H]([C@@H](C)O)NC(=O)[C@H](CCCNC(=N)N)NC(=O)[C@H](CO)NC3=O)NC(=O)[C@H](CCCCN)NC(=O)[C@H](CC(=O)O)NC(=O)[C@H](CC(N)=O)NC(=O)[C@H](Cc2cn(CCOCCOCCOCCOCCOCCOCCOCCOCCOCCOCCN)nn2)NC(=O)[C@@H]2CCCN2C1=O [compound 527]	15	14	1600	12
